# Results: PubChem BioAssay AID1508642 (National Center for Advancing Translational Sciences (NCATS), 2021)
# Out of some 43,000 compounds screened, about 200 (0.47%) were called active. Roughly 12% stayed inconclusive and do not appear here. Calls come from the whole dose curve; as a rule, active = well fitted cell-killing curve with a large enough effect; inconclusive = small, poorly fitted or top-dose-only effect, or effect the other way; inactive = flat fitted curve, though single readings scatter. This is one part of the list.
# Test: Cell viability qHTS assay in S16 Pmp22-F2sN cells; note: nearly all actives have a fitted effect of over 65% in size
# Conditions: S16 Pmp22-F2sN Schwann cells (luciferase reporters placed in the Pmp22 gene) viability, CellTiter-Glo, 24 h; series mostly up to 57.5 µM; activity change, negative = cytotoxicity: at the top concentration
# Summary of the method: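 Luminescence from CellTiter-Glo, read by CCD camera after a 15 min room-temperature incubation, served as the viability signal. Reporter Schwann cells (S16 Pmp22-F2sN) had been treated with pin-transferred compounds for 24 h at 37C.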
# % is set by controls: 0 for no effect and ±100 for the full control effect.
row,SMILES,"activity change, negative = cytotoxicity"
1,Cc1cc2nc(-c3ccc(OCc4ccccc4Cl)cc3)cc(C(F)(F)F)n2n1,inactive: 11.8%
2,COc1ccccc1NC(=O)Cn1c(SCC(=O)N(C)c2ccccc2)nc2ccccc21,inactive: 15.6%
3,Cc1ccc(NS(=O)(=O)c2ccc3c(c2)n(C)c(=O)n3C)cc1C,inactive: -1.42%
4,Cc1ccc(S(=O)(=O)NC2(C(F)(F)F)NC(=O)N(CCc3ccccc3)C2=O)cc1 (stereo not given),inactive: 16.7%
5,COc1cccc2c1cc1c(=O)n(CC(=O)N3CCN(c4ccc(Cl)cc4)CC3)nc(C)n12,inactive: -2.41%
6,Fc1ccc(Nc2ncnc3onc(-c4cccc(Cl)c4)c23)c(F)c1,inactive: 0.704%
7,Cn1c(=O)c2c(-c3cccc(Br)c3)n(C(C)(C)CO)cc2n(C)c1=O,inactive: -2.31%
8,CCC(C(=O)NCc1ccco1)n1nc(C)c2c(C)n(-c3ccc(C)cc3)nc2c1=O (stereo not given),inactive: -6.32%
9,Cc1cccc(C(=O)NCC(=O)OCc2cc(=O)n3nc(CC(C)C)sc3n2)c1,inactive: 12.7%
10,COc1cccc(C(=O)N2CCN(CCc3ccncc3)CC2)c1,inactive: 2.53%
11,CN(C)c1ccc(CNC(=O)c2cccc(NC(=O)N3CCSc4ncccc43)c2)cc1,inactive: -14.9%
12,O=C(Nc1ccccc1Cl)C1CCN(c2nc3ccccc3nc2C(F)(F)F)CC1,inactive: -0.203%
13,O=C(NCCn1cc(SCc2ccccc2Cl)c2ccccc21)c1cccs1,inactive: -3.08%
14,CCOc1ccccc1NC(=O)CSc1nnc2[nH]c(=O)cc(-c3ccccc3)n12,inactive: -5.84%
15,COc1ccc(NC(=O)Cn2cnc3sc(C)c(S(=O)(=O)N4CCN(c5ccccc5OC)CC4)c3c2=O)cc1OC,inactive: 3.68%
16,CCC1CN(C(=O)NCc2ccc(C)cc2)c2cc(Cl)ccc2O1 (stereo not given),inactive: -8.59%
17,CCN1CCN(Cc2nc3cc(NC(=O)c4cc(OC)c(OC)c(OC)c4)ccc3n2CC)CC1,inactive: 7.08%
18,Cc1ccc(CNC(=O)N2CCC(CN3CCC(C)CC3)CC2)cc1,inactive: 3.17%
19,COc1ccc(S(=O)(=O)n2nc(-c3ccco3)nc2NCc2ccc(N(C)C)cc2)cc1,inactive: -16.9%
20,COc1ccc(S(=O)(=O)c2cn(CC(=O)Nc3cc(C)ccc3C)c3ccccc3c2=O)cc1,inactive: 20.9%

row,SMILES,"activity change, negative = cytotoxicity"
1,Cc1ccc(C)c(N2CCN(C(=O)Cn3ncc4c(=O)oc5ccccc5c43)CC2)c1,inactive: 6.74%
2,COc1cc(OC)cc(-c2nc3nc(C)c(CCC(=O)Nc4ccc(C)c(C)c4)c(C)n3n2)c1,inactive: 26.6%
3,CCc1ccccc1NC(c1nnc(-c2cccc(F)c2)o1)c1ccc(F)cc1Cl (stereo not given),inactive: 3.06%
4,CC(C)c1ccc(NC(=O)CN2C(=O)COc3ccc(S(=O)(=O)N4CCCCC4)cc32)cc1,inactive: -14.4%
5,Cc1ccc2scc(N3CCc4ccccc4C3)c(=O)c2c1,inactive: -5.15%
6,Cc1ccc(-n2nc3c(=O)n(CCCC(=O)NCc4ccccc4C)nc(C)c3c2C)cc1,inactive: 3.11%
7,COCCNC(=O)c1c(-c2ccccc2)c(-c2ccccc2)nn(C)c1=O,inactive: -6.01%
8,Cc1ccc([N+](=O)[O-])cc1S(=O)(=O)N1CCn2cccc2C1c1ccccc1F (stereo not given),inactive: 1.82%
9,O=C(NCc1cccn1Cc1ccccc1)Nc1cccc(C(F)(F)F)c1,inactive: -9.63%
10,CCOC(=O)c1c(C)c(-c2ccccc2)n(CC(=O)NCc2cccc(OC)c2)c1C,inactive: 13.5%
11,Cn1c(=O)oc2cc(S(=O)(=O)N3CCC(C(=O)NCc4ccccc4)CC3)ccc21,inactive: -2.49%
12,CN(Cc1ccc(F)cc1)S(=O)(=O)c1nnc(NC(=O)c2ccccc2Br)s1,inactive: -16.6%
13,O=C(Cn1c(=O)n(Cc2ccc(Cl)cc2)c(=O)c2cccnc21)Nc1ccccc1C(F)(F)F,inactive: 22.2%
14,Cc1ccc(NC(=O)CNC(=O)Cn2c(C)cc3ccccc3c2=O)cc1F,inactive: 0.689%
15,CCOC(=O)c1cnc2cc(C(F)(F)F)ccc2c1N1CCN(c2cccc(Cl)c2)CC1,inactive: 3.57%
16,CCOc1cc(CNC(=O)c2ccc(Cn3c(=O)c4cccn4c4cccnc43)cc2)ccc1OC,inactive: 8.74%
17,Cc1ccc(NC(=O)CSc2nc3ccc(NC(=O)c4cccs4)cc3s2)cc1,inactive: 12.5%
18,CCOc1cccc(C2c3[nH]c4ccccc4c3CCN2C(=O)c2ccccc2F)c1 (stereo not given),inactive: 3.42%
19,CC(=O)c1ccc(NC(=O)Cn2cnc3nc4c(cc3c2=O)CC(C)CC4)cc1 (stereo not given),inactive: -13.3%
20,CCOc1ccccc1C(=O)Nc1ccc(S(=O)(=O)Nc2onc(C)c2C)cc1,inactive: 8.06%

row,SMILES,"activity change, negative = cytotoxicity"
1,CCOC(=O)c1c(SCC(=O)Nc2nc3ccccc3s2)nc(=O)[nH]c1C,inactive: 0.426%
2,CCC(Sc1nnc(C)n2c1cc1sccc12)C(=O)Nc1ccccc1F (stereo not given),inactive: -10.9%
3,CCCCC(=O)Oc1ccc2oc(-c3ccc(OC)cc3)cc(=O)c2c1,inactive: 5.37%
4,Cc1cccc(-c2nc3scc(CCNS(=O)(=O)c4c(C)noc4C)n3n2)c1,inactive: 4.18%
5,Cc1ccc(S(=O)(=O)c2nnn3c2nc(NC(C)c2ccccc2)c2sccc23)cc1 (stereo not given),inactive: -7.25%
6,O=C(NCc1cccn1Cc1ccccc1)Nc1ccc(Br)cc1F,inactive: -3.18%
7,COc1cccc(N2CCN(c3ncnc4c3c(-c3ccccc3)cn4-c3ccc(C)cc3)CC2)c1,inactive: 15.6%
8,CCCc1cc(=O)[nH]c2nnc(SCC(=O)Nc3ccc(OC)cc3)n12,inactive: -4.44%
9,O=C(Nc1ccccc1C(=O)OCc1cc(=O)n2ccsc2n1)c1ccc(Cl)cc1,inactive: 10.9%
10,COc1ccccc1CNC(=O)CCNS(=O)(=O)c1ccc2c(c1)CCCC(=O)N2,inactive: 22.9%
11,CCOC(=O)c1c(C)[nH]c(C)c1S(=O)(=O)NCC(=O)NCc1ccc(C)cc1,inactive: 18.2%
12,Cc1ccc(Cl)cc1NC(=O)Nc1nnc(N2CCCC(C)C2)s1 (stereo not given),inactive: -1.06%
13,CCOc1ccc(N2CC(NC(=O)c3ccc(S(=O)(=O)N4CCCC4)cc3)CC2=O)cc1 (stereo not given),inactive: -0.772%
14,Cc1ccc(-c2n[nH]c3c2C(c2cccc(O)c2)N(c2ccc(C(=O)O)cc2)C3=O)cc1 (stereo not given),inactive: 12%
15,CCN(CC)CCNC(=O)c1ccc(CSc2nc3ccncc3n2Cc2cccc(F)c2)cc1,inactive: -5.43%
16,CCOc1ccc(-c2cc3c(=O)n(Cc4nc(-c5ccc(OC(C)C)cc5)oc4C)ccn3n2)cc1Cl,inactive: 3.36%
17,Cc1ccccc1-c1nc(CN2CCC(C(=O)NCCc3ccccc3)CC2)c(C)o1,inactive: 12.8%
18,O=C(CCCn1c(=O)c2ccccc2n(CC(=O)Nc2cccc(C(F)(F)F)c2)c1=O)NCc1ccc2c(c1)OCO2,inactive: 1.47%
19,O=C(Cn1nc(N2CCN(c3ccccc3)CC2)ccc1=O)Nc1ccc(F)cc1F,inactive: -8.49%
20,COc1ccc(CNC(=O)C2CCCN(C(=O)N3CCOc4ccccc43)C2)cc1 (stereo not given),inactive: -1.93%
